Assay results as given in PubChem BioAssay AID1457 (National Center for Advancing Translational Sciences (NCATS), 2008).
The whole screen tested about 210,000 compounds, of which about 730 (0.35%) were called active. The inconclusive results got no clear call from the source; some entries with a clear call stand among them for comparison. Calls follow the shape of the dose curve; as a rule, active = well fitted inhibition curve with a large enough effect; inconclusive = small, poorly fitted or top-dose-only effect; inactive = no such curve, though single readings can be large or run the other way. Where the call is inconclusive, the potency comes from a doubtful curve fit. The source holds several records for some structures; these can differ, active in one and inactive in another.

Assay: qHTS Assay for Identifying the Cell-Membrane Permeable IMPase Inhibitors: Potentiation with Lithium; also: nearly all actives have a fitted effect of over 50% in size
Settings: CHO-M1 cells, IP1 TR-FRET (IP-One), carbachol + lithium; series mostly up to 59.4 µM
Text: NIH Chemical Genomics Center [NCGC]
NIH Molecular Libraries Probe Production centers Network [MLPCN]
Assay Submitter (PI): Wei Zheng
Lithium has been widely used for the treatment of bipolar disorder. But lithium has a narrow therapeutic index and it can cause side effects such as thirst, weight gain, tremor, polyuria and memory problems. Although the mechanism for lithium action in treatment of bipolar disorder is still not fully understood, inhibition of inositol monophosphatase (IMPase) and the subsequent depletion of the inositol pool in living cells have been implicated as the primary therapeutic benefit of lithium therapy. Therefore, a selective IMPase inhibitor with reduced side effects might be a good drug candidate to replace lithium for the treatment of bipolar disorder. Several IMPase inhibitors have been discovered previously. However, they are not suitable for therapeutic use because of their poor cell membrane penetrability or oral bioavailability; the development of new cell-permeable IMPase inhibitors is needed.
IMPase catalyzes the hydrolysis of inositol-1-phosphate (IP1) to release free inositol. Binding of an agonist to a Gq coupled GPCR results in the activation of PLC, which hydrolyzes the PIP2 to form inositol-1,4,5-trisphosphate (IP3) and diacyl glycerol (DAG). While DAG activates protein kinase C (PKC), IP3 triggers the elevation of intracellular free Ca2+. The IP3 is very rapidly inactivated by hydrolysis to IP2, IP1 and then inositol by a series of enzymes including IMPase. Free inositols are used for synthesis of PI and thus start another inositol cycle.
To identify new cell-permeable IMPase inhibitors, we developed a cell-based IMPase assay in which the cytosolic IP1 is measured by a time-resolved fluorescence resonance energy transfer (TR-FRET) assay. In this assay, an IP1 specific antibody is used to detect the labeled IP1 tracer. When the cell lysate contains the elevated IP1 due to the inhibition of IMPase, the TR-FRET between the labeled antibody and IP1 tracer is disrupted resulting in a reduction in the total signal. Since the TR-FRET is used, this cell-based assay is a homogenous assay without cell wash and medium change that is suitable for assay miniaturization and HTS. In this particular assay, a small amount of lithium is added to potentiate the response of weak activators.
NCGC Assay Protocol Summary:
A Chinese hamster ovary (CHO) cell line stably expressing the M1 receptor (CHO-M1) was obtained from ATCC and maintained in F-12 Kaighn's media (Invitrogen, Carlsbad, CA) supplemented with 10 % FBS, 100 units/ml penicillin, 100 ug/ml streptomycin and 250 ug/ml geneticin at 37C, 5% CO2 in a humidified atmosphere. Before the assay, aliquots of cells were frozen and stored at -135C. The assay was performed in 1536-well format. Data are reported for both the ratio of the two emission wavelengths, and also for the component 'donor' channel, Em2=620. […] AC50 values were determined from concentration-response data modeled with the standard Hill equation.
(1) Frozen CHO-M1 cells were thaw, washed once with fresh media and resuspended in F12K media containing 10% FBS, 100 units/ml penicillin and 100 ug/ml streptomycin. Cells were plated at 4ul/well (2000 cells) in white, tissue culture treated 1536-well plates, and then cultured at 37C, 5 % CO2 for 16 to 30 hours.
(2) Add 23 nl/well of compound in DMSO solution. The final titration for each compound was between 0.6 nM and 46 uM.
(4) Incubation at 37C, 5 % CO2 for 30 min.
(5) Add 1 ul/well of d2-conjugated IP1 (d2-IP1) and 1 ul/well of Eu+ cryptate conjugated anti-IP1 antibody (Eu+-Ab) prepared in the cell lysis buffer, both from the IP-One kit (Cisbio, MA).
(6) Incubate at room temperature for 10 minutes.
(7) Detect the assay plate (Ex = 320, Em1 =665 and Em2 620) in a ViewLux plate reader.
Potency is read from the fitted curve at half-maximal effect.

| SMILES | Potency |
| --- | --- |
| CCOC(=O)CSc1nc(-c2ccccc2)nc2ccccc12 | inconclusive: 11.2 µM [inhibitor, partial curve] |
| COCCCn1c(SCC(=O)N2CC(=O)Nc3ccccc32)nnc1-c1ccoc1C | inactive |
| CCCc1cc(C(=O)OC)c(NC(=O)CCCC(=O)O)s1 | inconclusive: 28.2 µM [inhibitor, single point] |
| CCC1CCCCN1C(=O)CSc1nnc(-c2ccco2)o1 (stereo not given) | inactive |
| Cc1ccnc(N2CCC(C(=O)Nc3ccc(Oc4ccccc4)cc3)CC2)n1 | inconclusive: 28.2 µM [inhibitor, single point] |
| Cc1ccc2nc(NC(=O)c3ccc(N4C(=O)CCC4=O)cc3)sc2c1 | inconclusive: 11.2 µM [inhibitor, partial curve] |
| CCN(C(=S)NCCOC)c1cccc2ccccc12 | inconclusive: 28.2 µM [inhibitor, single point] |
| CCCCCc1cc(O)c2c(C)cc(=O)oc2c1 | inconclusive: 22.4 µM [inhibitor, single point] |
| COC(=O)c1sccc1NC(=O)c1c(C)noc1C | inconclusive: 28.2 µM [inhibitor, single point] |
| O=C(O)CNS(=O)(=O)c1cc(Cl)c(Cl)cc1Cl | inactive |
| Cc1ccc2cc(C#N)c(SCC(=O)NCC3CCCO3)nc2c1 (stereo not given) | active: 10 µM |
| O=C(Cn1nnc(-c2ccccc2NC(=O)c2ccccc2F)n1)NC1CCCC1 | inconclusive: 28.2 µM [inhibitor, single point] |
| C/C=C1\CC2C=CC1C2 (stereo not given) | inactive |
| O=C(/C=C/c1ccco1)NC(=S)Nc1cc(-c2nc3ccccc3s2)ccc1Cl | inconclusive: 22.4 µM [inhibitor, single point] |
| O=C(CSc1cccc2cccc(Cl)c12)OCC(=O)N1CCN(C(=O)c2ccco2)CC1 | active: 10 µM |
| O=C1c2oc3ccccc3c(=O)c2C(c2cccnc2)N1CCCN1CCOCC1 (stereo not given) | inactive |
| CCN(CC)Cc1c(O)c(Cl)cc2c3c(c(=O)oc12)CCCC3 | active: 12.6 µM |
| Cc1cc(NC(=O)CSc2nc3ccccc3c(=O)n2Cc2ccccc2)no1 | inconclusive: 31.6 µM [inhibitor, partial curve] |
| COC(=O)c1sc(NC(=S)NC(=O)c2ccc(F)cc2)nc1C | inconclusive: 10 µM [inhibitor, partial curve] |
| COc1ccc(S(=O)(=O)NC(CC(=O)NCc2ccco2)C(C)C)cc1 (stereo not given) | inactive |
| COc1ccc2cc(C(=O)COC(=O)COc3ccc4c(C)cc(=O)oc4c3)ccc2c1 | inconclusive: 22.4 µM [inhibitor, single point] |
| CCSc1ncc(/C=N/Nc2ccc([N+](=O)[O-])cc2)n1C | inactive |
| O=C1OC2(c3cc(Br)c(O)c(Br)c3Oc3c2cc(Br)c(O)c3Br)c2c(Cl)c(Cl)c(Cl)c(Cl)c21 | inconclusive: 11.2 µM [inhibitor, partial curve] |
| N=C1C(c2nc3ccccc3c(=O)[nH]2)=C(O)CN1CCc1ccccc1 | active: 11.2 µM |
| CCn1c(SCC(=O)N2CCCc3ccccc32)nnc1-c1ccoc1C | inactive |

| SMILES | Potency |
| --- | --- |
| Cc1ccc2[nH]c3c(=O)n(CCC4=CCCCC4)cnc3c2c1 | inconclusive: 2.51 µM [inhibitor, partial curve] |
| COCCn1c(-c2ccc(Cl)cc2Cl)nc2c(c(=O)c3ccccc3n2C)c1=O | inconclusive: 3.16 µM [inhibitor, single point] |
| CN1CCN(NC(=O)c2cc(S(=O)(=O)N3CCOCC3)c(Cl)cc2Cl)CC1 | inconclusive: 28.2 µM [inhibitor, single point] |
| C[C@@H](NC(=O)c1nc[nH]c1C(=O)N[C@@H](Cc1ccccc1)C(=O)OCc1ccccc1)c1ccccc1 | inactive |
| CC(C)C(=O)Nc1c(C(=O)c2ccc(F)cc2)oc2ccccc12 | inconclusive: 12.6 µM [inhibitor, single point] |
| CCOc1ccc(C(CC(=O)O)NC(=O)c2sc3ccccc3c2Cl)cc1 (stereo not given) | active: 8.91 µM |
| N#Cc1c(N)nc(SCc2ccccc2)c(C#N)c1-c1ccco1 | inconclusive: 11.2 µM [inhibitor, single point] |
| COc1ccc2c(c1)CCC/C2=N/OC(=O)c1ccccc1OC | inconclusive: 3.55 µM [inhibitor, full curve, poor fit] |
| COc1cccc(-c2cc(C(=O)N3CCN(C(c4ccccc4)c4ccccc4)CC3)no2)c1 | inactive |
| CCOC(=O)CC(=O)CSc1ncnc2c1oc1ccccc12 | active: 8.91 µM |
| N#CC1=C(N)SC(N)=C(C#N)C1c1ccoc1 | inconclusive: 11.2 µM [inhibitor, partial curve] |
| COc1cc(C(=O)N2CCN(Cc3ccccc3C(F)(F)F)CC2)cc(OC)c1OC | inactive |
| Cc1cc(C)c(OCC(=O)Nc2nc(-c3ccccn3)cs2)c(C)c1 | inactive |
| NC(=O)CSc1ncnc2c1oc1ccccc12 | active: 12.6 µM |
| COc1ccc(C(C)=O)cc1CSc1nc2ccccc2c(=O)n1-c1ccccc1 | inconclusive: 28.2 µM [inhibitor, single point] |
| CCn1c2ccccc2c2cc(CN3CCN(S(=O)(=O)Cc4ccccc4)CC3)ccc21 | inconclusive: 28.2 µM [inhibitor, single point] |
| Cc1nc2c(Br)cc(Br)cc2cc1O | inconclusive: 2.24 µM [inhibitor, full curve] |
| CCOC(=O)c1sc2nc(C)nc(SCC(=O)NC(C)CCc3ccccc3)c2c1C (stereo not given) | active: 10 µM |
| CN(C)c1ncc2nc(-c3ccc(Cl)cc3)c(=O)n(-c3ccccc3)c2n1 | active: 2.82 µM |
| CCCNC(=O)c1c(NC(=O)C2COc3ccccc3O2)sc2c1CCCC2 (stereo not given) | inconclusive: 28.2 µM [inhibitor, single point] |
| Cc1ccc2[nH]c(=O)c(CN(CCO)Cc3nnnn3CCc3ccccc3)cc2c1 | inactive |
| CCC(=O)NCCNc1nc2cc(C)c(C)cc2cc1C#N | inconclusive: 28.2 µM [inhibitor, single point] |
| Cc1cn([C@@H]2C[C@H](N=[N+]=N)[C@H](CO)O2)c(=O)[nH]c1=O | inactive |
| Cc1cc(C)cc(NC(=O)CSc2ccc(-c3ccco3)nn2)c1 | inactive |
| Cc1c(C(=O)NCc2cccs2)oc2ccccc12 | inactive |

| SMILES | Potency |
| --- | --- |
| CC(C)C(C)(C#N)NC(=O)CSc1nnc(C(F)(F)F)n1C (stereo not given) | inconclusive: 11.2 µM [inhibitor, partial curve] |
| CCN(CC(=O)Nc1sc2c(c1C#N)CCCC2)Cc1nc2ccccc2c(=O)[nH]1 | inactive |
| COC(=O)c1ccccc1NC(=O)CSc1nnc(Cc2ccc(Cl)cc2)o1 | inactive |
| COC(=O)c1ccc2c(=O)n(Cc3ccco3)c(SCC(=O)Nc3cc(C)on3)nc2c1 | inactive |
| CN[C@H](CC(C)C)C(=O)N[C@H]1C(=O)N[C@@H](CC(N)=O)C(=O)N[C@H]2C(=O)N[C@H]3C(=O)N[C@H](C(=O)N[C@H](C(=O)O)c4cc(O)cc(O)c4-c4cc3ccc4O)[C@H](O)c3ccc(c(Cl)c3)Oc3cc2cc(c3O[C@@H]2O[C@H](CO)[C@@H](O)[C@H](O)[C@H]2O[C@H]2C[C@](C)(N)[C@H](O)[C@H](C)O2)Oc2ccc(cc2Cl)[C@H]1O | inactive |
| Cc1ccc(OCC(=O)Nc2ccc(-c3nc4ncccc4o3)cc2)c(C)c1 | inconclusive: 14.1 µM [inhibitor, single point] |
| Cc1cccc(-n2c(-c3ccco3)n[nH]c2=S)c1 | inconclusive: 7.94 µM [inhibitor, partial curve] |
| CC(=O)Nc1cccc(NC(C)=O)n1 | inactive |
| CCOC(=O)c1c(NC(=O)c2cccs2)sc2c1CCC2 | inconclusive: 28.2 µM [inhibitor, single point] |
| O=c1c(O)c(-c2ccc(O)c(O)c2)oc2cc(O)ccc12 | active: 11.2 µM |
| CC(C)OC(=O)c1nnn(-c2nonc2N)c1CSc1ccccn1 | inconclusive: 0.316 µM [inhibitor, full curve, poor fit] |
| CC(C)(C)C1CCc2c(sc(NC(=O)c3ccco3)c2C(N)=O)C1 (stereo not given) | active: 5.62 µM |
| C=CCOc1ccc(C2C(C(=O)c3ccco3)=C(O)C(=O)N2Cc2cccnc2)cc1 (stereo not given) | inconclusive: 28.2 µM [inhibitor, single point] |
| CCOC(=O)c1c(NC(=O)C2C3C=CC(CC3)C2C(=O)O)sc(C)c1C (stereo not given) | inactive |
| O=C(CSc1nnc(-c2cccnc2)n1Cc1ccco1)c1ccc2ccccc2c1 | inactive |
| CC(C)(N=NC(C)(C)C(=N)N)C(=N)N | inactive |
| CC(C)C(=O)c1cn(CC(=O)NCc2ccc3c(c2)OCO3)c2ccccc12 | inconclusive: 28.2 µM [inhibitor, single point] |
| O=C(Cn1c(=S)[nH]c2ccccc21)c1ccccc1 | inactive |
| CC1=NN(Cc2c(C)nn(Cc3ccccc3)c2C)C(C)(C)C1 | inconclusive: 3.55 µM [inhibitor, single point] |
| O=C(OCc1c(Cl)cccc1Cl)c1ccncc1 | inactive |
| CC(=O)Nc1ccc(S(=O)(=O)NNC(=O)COc2cccc(C)c2)cc1 | inactive |
| N#Cc1c(-c2cccc(F)c2)cc(-c2ccccc2)nc1Br | inconclusive: 28.2 µM [inhibitor, single point] |
| CCOC(=O)c1sc2ncnc(NCC(c3cccs3)N(C)C)c2c1C (stereo not given) | inconclusive: 28.2 µM [inhibitor, single point] |
| N#Cc1nc(-c2cccc3ccccc23)oc1NCCN1CCOCC1 | inconclusive: 28.2 µM [inhibitor, single point] |
| COc1ccc(C2Nc3ccccc3C(=O)N2c2ccc(F)cc2)cc1CSc1ccccn1 (stereo not given) | inconclusive: 28.2 µM [inhibitor, single point] |
